Measurements as given in PubChem BioAssay AID504845 (National Center for Advancing Translational Sciences (NCATS), 2011).
Screen size: about 390,000 compounds; about 150 (0.038%) were called active. Not shown: some 3% with an inconclusive outcome. Calls come from the whole dose curve; as a rule, active = well fitted inhibition curve with a large enough effect; inconclusive = small, poorly fitted or top-dose-only effect; inactive = no such curve, though single readings can be large or run the other way. The list shows a part of the results, in another mix than the full data.

biological target: Regulator of G-protein signaling 4 (Homo sapiens) (UniProt P49798); experiment: Inhibitors of Regulator of G Protein Signaling (RGS) 4: qHTS; details: Transcreener GDP fluorescence polarization, RGS4-accelerated GTP hydrolysis; series mostly up to 114 µM; activity change, negative = inhibition: at the top concentration; note: nearly all actives have a fitted effect of over 75% in size
How it was run: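 MLSMR compounds (23 nl, pin-transferred) preincubated 10 min at room temperature with a 500nM (2x) first reagent, then RGS4 at 900nM (2x) plus Transcreener GDP mix added; fluorescence polarization (620/688 nm) read before and after 90 min at 30 °C.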
% is set by controls: 0 for no effect and ±100 for the full control effect; potency is the fitted concentration of half-maximal effect.

UniProt P49798, sequence (P49798 whole entry, looked up): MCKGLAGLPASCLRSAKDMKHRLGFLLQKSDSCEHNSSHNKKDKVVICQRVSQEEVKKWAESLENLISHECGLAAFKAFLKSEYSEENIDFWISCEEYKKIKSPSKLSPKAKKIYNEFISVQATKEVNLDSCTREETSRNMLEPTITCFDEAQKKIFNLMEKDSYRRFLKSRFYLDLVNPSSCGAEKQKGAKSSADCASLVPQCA

SMILES | activity change, negative = inhibition | Potency
CC(C)(CO)Cc1cc(C(C)(C)C)c(O)c(C(C)(C)C)c1 | inactive: -11.9% | –
C#CCN(C)CCCOc1ccc(Cl)cc1Cl | – | inactive
Cn1c(=O)c2c(ncn2CCO)n(C)c1=O | inactive: 19.8% | –
CN(Cc1cnccn1)Cc1nc(Cc2ccccc2F)no1 | inactive: 67.2% | –
CC[C@@](N)(C(=O)O)c1ccc(C(=O)O)cc1 | inactive: 402% [at 56.9 µM] | –
O=c1oc(/C=C/c2ccco2)nc2sc3c(c12)CCC3 | inactive: 75.1% | –
C=C1C(=O)O[C@@H]2[C@H]3O[C@]3(C)CCC=C(C)CC[C@@H]12 | inactive: -39% [at 56.9 µM] | –
CC(=O)OCC1=C(C(=O)O)N2C(=O)[C@@H](NC(=O)Cc3cccs3)[C@H]2SC1 | inactive: -20% | –
NCCCC(N)(C(=O)O)C(F)F (stereo not given) | – | inactive
NCCNS(=O)(=O)c1cccc2c(Cl)cccc12 | – | inactive
Cc1ccccc1C(OCCN(C)C)c1ccccc1 (stereo not given) | – | inactive
CC(=O)N1CCN(C)CC1 | inactive: -105% [at 56.9 µM] | –
COc1cc2c(cc1OC)C(Cc1ccc(O)cc1)NCC2 (stereo not given) | inactive: -29.7% | –
O=C(c1cc([N+](=O)[O-])ccc1Cl)N1CCN(c2ccccn2)CC1 | inactive: 59% | –
CCN1/C(=C\C(=S)Nc2ccccc2)Sc2ccccc21 | inactive: -36.3% | –
Cc1cccc(C)c1OCC(N)C(C)C (stereo not given) | inactive: 4.09% | –
CCCCNc1ccc(C(=O)OCCN(C)C)cc1 | – | inactive
COc1ccc(NC(=O)c2ccc(-c3ccc(-c4noc(C)n4)cc3C)cc2)cc1N1CCN(C)CC1 | inactive: 38.5% | –
COC(=O)C1=C(C)NC(C)=C(C(=O)OCCSc2ccccc2)[C@@H]1C | inactive: -73.2% [at 56.9 µM] | –
CCCC[C@H]1CCCO[C@@](C(=O)NCc2ccc(C)o2)(C(F)(F)F)C1 | inactive: -45.2% | –
C=C(C)CC1N(c2cccc(OC)c2)C(=O)[C@@H]2C(C(=O)O)[C@H]3C=C[C@@]12O3 (stereo not given in full) | inactive: -12.1% | –
O=C(O)c1cccnc1C(=O)O | – | inactive
COc1ccc(OC)c(NC(=O)CSc2nc3n[nH]c(C)c3c(=N)n2-c2cccc(Cl)c2C)c1 | inactive: 68.1% | –
COc1ccc(N=C2SC(C(=O)Nc3ccc4c(c3)OCO4)CC(=O)N2C)cc1 (stereo not given) | inactive: -13.5% | –
CC1(C)Cc2cccc(OCC(=O)Nc3ccccc3N3CCOCC3)c2O1 | inactive: 70% | –
CC/C(=C(\c1ccccc1)c1ccc(OCCN(C)C)cc1)c1ccccc1 | – | inactive
C1CCC(NC(=NC2C3CC4CC(C3)CC2C4)N2CCOCC2)CC1 (stereo not given) | – | active: 0.336 µM
CCOC(=O)c1cc2c(=O)n3ccccc3nc2n(Cc2ccco2)c1=NC(=O)c1ccccc1OC | inactive: -26.6% | –

SMILES | activity change, negative = inhibition | Potency
O=C(N/N=C/C(Br)=C/c1ccccc1)c1n[nH]c2c1CCC2 | inactive: -24.6% | –
Cn1c(=O)c2c(nc(/C=C/c3cccc(Cl)c3)n2C)n(C)c1=O | inactive: -3.57% | –
NC(=S)c1ccc[n+]([C@@H]2O[C@@H](COP(=O)([O-])OP(=O)(O)OC[C@H]3O[C@@H](n4cnc5c(N)ncnc54)[C@H](OP(=O)(O)O)[C@@H]3O)C(O)C2O)c1 (stereo not given in full) | – | active: 26.7 µM
Cc1nc2c([nH]1)c(=O)n(C)c(=O)n2Cc1ccco1 | – | inactive
CC12CN3CC(C)(CN(C1)C3c1ccc(Cl)cc1Cl)C2O (stereo not given) | inactive: 65.9% | –
CC(NCCc1ccc(O)cc1)C(O)c1ccc(O)cc1 (stereo not given) | inactive: -7.32% | –
CCC(=O)Nc1cccc(NC(=O)c2cccnc2)c1 | inactive: 61.4% | –
c1ccc2sc(N3CCN(Cc4ccc5c(c4)OCO5)CC3)nc2c1 | inactive: -185% [at 56.9 µM] | –
COc1ccc(CCCO[C@@H](Cn2ccnc2)c2ccc(OC)cc2)cc1 | inactive: 293% [at 56.9 µM] | –
COC(=O)/C=C1\SC(=Nc2ccc(Cl)c(Cl)c2)NC1=O | inactive: -32.7% | –
CCN(CC)CCCN1C(=O)C(=O)/C(=C(/O)c2cc(C)ccc2C)C1c1cccnc1 (stereo not given) | inactive: 66.8% | –
CCN1C(=O)C=CC1=O | inactive: 10.9% [at 56.9 µM] | –
Cc1ccc(CNC(=O)c2cc3c(s2)CN(Cc2ccccc2)C3)cc1 | inactive: 74% | –
C[N+](C)(C)CCOC(N)=O | – | inactive
COc1ccccc1NC(=O)C12CC3CC(C1)CC(c1ccc(C)cc1)(C3)C2 | inactive: 54.1% | –
COc1ccc(NC(=O)CCCC(=O)OCC(=O)c2cccc(OC)c2)cc1 | inactive: 65.3% | –
COC(=O)c1[nH]c2ccc(C)cc2c1NC(=O)C1=COCCO1 | inactive: 55% | –
CN1CCN2c3ccccc3Cc3ccccc3C2C1 (stereo not given) | – | inactive
N[C@@H](COP(=O)(O)O)C(=O)O | – | inactive
CCN1CCCC1CNC(=O)c1cc(S(N)(=O)=O)ccc1OC (stereo not given) | inactive: -1.83% | –
CC(C)(C)NC(=O)NC(=O)COC(=O)Cc1c(Cl)cccc1Cl | inactive: 64.9% | –
O=C1N=C(O)CN1/N=C/c1ccc(-c2ccc([N+](=O)[O-])cc2)o1 | – | inactive
CCOC(=O)C1=C(C)N[C@@]2(O)c3ccccc3C(=O)[C@@]12O | inactive: -14.6% | –
O=C(Nc1ccc([N+](=O)[O-])cc1Cl)c1cc(Cl)ccc1O | inactive: -3.66% | –
COc1ccc(/C=N/NC(=O)c2ccc(CSc3nncn3C)cc2)cc1OC | inactive: 77.7% | –
N[C@]1(C(=O)O)CCc2cc(P(=O)(O)O)ccc21 | inactive: 212% [at 56.9 µM] | –
NS(=O)(=O)c1cc2c(cc1Cl)NC(C1C[C@H]3C=C[C@@H]1C3)NS2(=O)=O (stereo not given in full) | inactive: 4.61% | –
